Laboratory results: publication PMC11995724, “Antibiotic target discovery by integrated phenotypic and activity-based profiling of electrophilic fragments” (Cell chemical biology, 2025)
Hit rate of the full screen: of about 3,200 compounds, about 75 (2%) showed an effect of 50% or more. This is one part of the list.

tested on: T1, S. aureus MSSA476; parameters: species or system S. aureus MSSA476 (TSB) or V. cholerae SAD30 (LB); 384-well bacterial growth screen at 25 uM, OD600 relative to DMSO control; details: relative growth, OD600, TSB; 25 µM; inhibitor
T1 construct: MSSA476

Row | SMILES | % of control remaining [%]
1 | N#CCCN(C(=O)CCl)c1ccccc1 [6-I12, 2-chloro-N-(2-cyanoethyl)-N-phenylacetamide] | 108.244
2 | C=CC(=O)Nc1ccc(C(=O)NC2CC(C)(C)OC2=O)cc1 (centres unmarked) [3-B08, N-(5,5-dimethyl-2-oxooxolan-3-yl)-4-(prop-2-enamido)benzamide] | 93.3391
3 | COc1cc(NC(=O)CCl)c(OC)cc1Cl [5-C05, 2-chloro-N-(4-chloro-2,5-dimethoxyphenyl)acetamide] | 100.182
4 | C=CC(=O)NCc1cn([C@@H]2COC[C@H]2OC)nn1 [1-J17, N-({1-[(3R,4S)-4-methoxyoxolan-3-yl]-1H-1,2,3-triazol-4-yl}methyl)prop-2-enamide] | 115.341
5 | C=CC(=O)N(CC)CC(=O)N1CCCC(F)(F)C1 [2-G14, N-[2-(3,3-difluoropiperidin-1-yl)-2-oxoethyl]-N-ethylprop-2-enamide] | 112.446
6 | Cc1nnc(C(C)NC(=O)C(C)Cl)s1 (centres unmarked) [7-D11, 2-chloro-N-[1-(5-methyl-1,3,4-thiadiazol-2-yl)ethyl]propanamide] | 108.32
7 | Cn1cc(C=C(C#N)C(=O)N2CCCC2)c(-c2cc3ccccc3o2)n1 [9-D18, 3-[3-(1-benzofuran-2-yl)-1-methyl-1H-pyrazol-4-yl]-2-(pyrrolidine-1-carbonyl)prop-2-enenitrile] | 108.464
8 | Cc1ccc(-c2cc(NC(=O)CCl)n(-c3ccccc3)n2)cc1 [4-C06, 2-chloro-N-[3-(4-methylphenyl)-1-phenyl-1H-pyrazol-5-yl]acetamide] | 108.623
9 | O=C(CCl)N[C@H](CO)Cc1ccccc1 [6-G20, 2-chloro-N-[(2S)-1-hydroxy-3-phenylpropan-2-yl]acetamide] | 109.61
10 | O=C1NC(=O)c2cc(NC(=O)N3CCSSCC3)ccc21 [10-K22, N-(1,3-dioxo-2,3-dihydro-1H-isoindol-5-yl)-1,2,5-dithiazepane-5-carboxamide] | 93.4375
11 | C=CC(=O)NCC(C)Cn1ccc(C)n1 (centres unmarked) [2-D03, N-[2-methyl-3-(3-methyl-1H-pyrazol-1-yl)propyl]prop-2-enamide] | 98.1723
12 | CC(Cl)C(=O)Nc1ccc2c(c1)ncn2CCN(C)C (centres unmarked) [6-P15, 2-chloro-N-{1-[2-(dimethylamino)ethyl]-1H-1,3-benzodiazol-5-yl}propanamide] | 89.122
13 | C=CC(=O)NC1CCOC(c2cnn(C)c2)C1 (centres unmarked) [2-F07, N-[2-(1-methyl-1H-pyrazol-4-yl)oxan-4-yl]prop-2-enamide] | 105.135
14 | C=CC(=O)N1CCCC(Oc2ccnc(C(=O)NC)c2)C1 (centres unmarked) [2-L22, N-methyl-4-{[1-(prop-2-enoyl)piperidin-3-yl]oxy}pyridine-2-carboxamide] | 110.009
15 | CC(C1CC1)N(C(=O)CCl)C1CC1 (centres unmarked) [5-F12, 2-chloro-N-cyclopropyl-N-(1-cyclopropylethyl)acetamide] | 112.204
16 | COc1ccc(C=C(C#N)C(=O)Nc2cccc(C(F)(F)F)c2)cc1 [8-A03, 2-cyano-3-(4-methoxyphenyl)-N-[3-(trifluoromethyl)phenyl]prop-2-enamide] | 125.477
17 | N#CC(=Cc1cccc(Cl)c1Cl)C(N)=O [8-J21, 2-cyano-3-(2,3-dichlorophenyl)prop-2-enamide] | 105.56
18 | C=CC(=O)N1CCC(C(=O)Nc2ncc(CCO)s2)CC1 [2-A08, N-[5-(2-hydroxyethyl)-1,3-thiazol-2-yl]-1-(prop-2-enoyl)piperidine-4-carboxamide] | 166.754
19 | C=CC(=O)N1CCC(Cn2nc(C)cc2C)CC1 [2-C17, 1-{4-[(3,5-dimethyl-1H-pyrazol-1-yl)methyl]piperidin-1-yl}prop-2-en-1-one] | 100.957
20 | C=CC(=O)NC1CS(=O)(=O)C1 [3-P18, N-(1,1-dioxo-1lambda6-thietan-3-yl)prop-2-enamide] | 122.943
21 | COc1ccc2ccccc2c1C=C(C#N)C(=O)N1CCCC1 [8-P12, 3-(2-methoxynaphthalen-1-yl)-2-(pyrrolidine-1-carbonyl)prop-2-enenitrile] | 74.0249
22 | Cc1ccc(S(=O)(=O)N(C)C)cc1NC(=O)C(C)Cl (centres unmarked) [4-I06, 2-chloro-N-[5-(dimethylsulfamoyl)-2-methylphenyl]propanamide] | 102.144
23 | O=C(CCl)N1CCc2sccc2C1c1cccs1 (centres unmarked) [4-L20, 2-chloro-1-[4-(thiophen-2-yl)-4H,5H,6H,7H-thieno[3,2-c]pyridin-5-yl]ethan-1-one] | 116.627
24 | Cc1ccc(C=C(C#N)C(N)=O)c(C)c1 [9-M04, 2-cyano-3-(2,4-dimethylphenyl)prop-2-enamide] | 128.539
25 | C=CC(=O)Nc1ccc2c(c1)SCC(=O)N2 [1-C22, N-(3-oxo-3,4-dihydro-2H-1,4-benzothiazin-7-yl)prop-2-enamide] | 112.879
26 | O=C(CCl)Nc1cc2c(cc1[N+](=O)[O-])OCCCO2 [4-O05, 2-chloro-N-(8-nitro-3,4-dihydro-2H-1,5-benzodioxepin-7-yl)acetamide] | 89.1853
27 | C=CC(=O)Nc1ccc2occc2c1 [3-H14, N-(1-benzofuran-5-yl)prop-2-enamide] | 68.9595
28 | C[C@H](NC(=O)CCl)C(=O)N1CCCCC1 [7-L14, 2-chloro-N-[(2S)-1-oxo-1-(piperidin-1-yl)propan-2-yl]acetamide] | 84.7724
29 | C=CC(=O)N1CCCC(CS(=O)(=O)NC)C1 (centres unmarked) [2-E18, N-methyl-1-[1-(prop-2-enoyl)piperidin-3-yl]methanesulfonamide] | 117.668
